# This is one part of the list. Single values are uncertain, as repeats are few or missing.
# Assays:
# Experiment in all cases: cell count relative to DMSO control; melanoma cells; higher = more viable cells
# Conditions in all cases: library dose: low library concentration; 72 h
# [1] = tested on: MeWo
# [2] = tested on: RPMI7951
# [3] = tested on: RVH-421
# [4] = tested on: SkMel28
# [5] = tested on: SkMel30
# [6] = tested on: SkMel5
# [7] = tested on: UACC257
# [8] = tested on: UACC62
# [9] = tested on: WM115
# [10] = tested on: WM1716
# 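Also: cell number obtained by counting DAPI-stained nuclei in high-throughput microscope images with image analysis software, screen run in 1,536-well plates.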
Structure (SMILES),cell count [1] [%],cell count [2] [%],cell count [3] [%],cell count [4] [%],cell count [5] [%],cell count [6] [%],cell count [7] [%],cell count [8] [%],cell count [9] [%],cell count [10] [%]
"COc1cc2ncnc(Nc3ccc(Oc4ccccc4)cc3)c2cc1OC + CCCCCCCCCCCC1=C(O)C(=O)C=C(O)C1=O [Embelin] (first compound 2 µM, partner dose 1.2 µM)",99.8,111,97.8,86.1,50.1,110,97.8,97,102,121
"O=S(=O)(c1ccccc1)N(CC(F)(F)F)c1ccc(C(O)(C(F)(F)F)C(F)(F)F)cc1 + CCCCCCCCCCCC1=C(O)C(=O)C=C(O)C1=O [Embelin] (first compound 1.4 µM, partner dose 1.2 µM)",107,93.4,83,80.8,84.7,77.6,92.2,96.6,88.3,97.2
"O=C(O)C(=O)Nc1sc2c(c1C(=O)O)CCNC2 + Cc1cc([N+](=O)[O-])ccc1NS(=O)(=O)c1cc(Cl)ccc1Cl [FH535] (first compound 1.66667 µM, partner dose 1 µM)",93,94,86.7,82.1,78.4,85.3,94,97.5,88.2,89.6
"N#Cc1c(O)c2c(-c3ccc(-c4ccccc4O)cc3)csc2[nH]c1=O + O=c1cc(-c2cccc3c2Sc2ccccc2S3)oc(N2CCOCC2)c1 [KU55933] (first compound 2 µM, partner dose 1 µM)",96.9,107,107,100,107,89.7,89.9,111,108,105
"CCN(CC)CCCCNc1ncc2cc(-c3cc(OC)cc(OC)c3)c(NC(=O)NC(C)(C)C)nc2n1 + O=C1NC(=O)/C(=C/c2ccc(-c3ccc(F)cc3O)o2)S1 [AS252424] (first compound 0.1 µM, partner dose 1 µM)",94.3,103,105,93.7,79.7,89.4,82.6,90.9,96,113
"N#Cc1c(O)c2c(-c3ccc(-c4ccccc4O)cc3)csc2[nH]c1=O + CCN(CC)CCCCNc1ncc2cc(-c3cc(OC)cc(OC)c3)c(NC(=O)NC(C)(C)C)nc2n1 [PD173074] (first compound 2 µM, partner dose 0.1 µM)",93.7,103,90,92.4,132,96.8,81.2,93.9,95.4,88.4
"COc1ccc(COc2ccc(Cc3cnc(N)nc3N)cc2OC)cc1 + COc1cc(N2CCC(N3CCN(C)CC3)CC2)ccc1Nc1ncc(Cl)c(Nc2ccccc2S(=O)(=O)C(C)C)n1 [NVP-TAE684] (first compound 1 µM, partner dose 0.08 µM)",92.1,102,93.7,101,97.4,95.3,94.2,92.2,81.7,89.9
"COc1ccc(-c2ccc3c(N4CCOCC4)nc(N4C[C@@H](C)O[C@@H](C)C4)nc3n2)cc1CO + COc1ccc(COc2ccc(Cc3cnc(N)nc3N)cc2OC)cc1 [GW2580] (first compound 0.02 µM, partner dose 1 µM)",104,97.7,117,77.9,108,102,98.8,99.1,92.7,110
"COc1cc(N2CCC(N3CCN(C)CC3)CC2)ccc1Nc1ncc(Cl)c(Nc2ccccc2S(=O)(=O)C(C)C)n1 + CCCCCCCCCCCC1=C(O)C(=O)C=C(O)C1=O [Embelin] (first compound 0.08 µM, partner dose 1.2 µM)",107,101,99.5,99.5,87.8,107,104,106,108,112
"N#Cc1c(O)c2c(-c3ccc(-c4ccccc4O)cc3)csc2[nH]c1=O + COc1ccc(COc2ccc(Cc3cnc(N)nc3N)cc2OC)cc1 [GW2580] (first compound 2 µM, partner dose 1 µM)",97.4,111,88.1,104,97.3,98.3,95.1,110,106,100
"COc1cc(N2CCC(N3CCN(C)CC3)CC2)ccc1Nc1ncc(Cl)c(Nc2ccccc2S(=O)(=O)C(C)C)n1 + CC(C)CCN1c2nc(Nc3cc(F)c(O)c(F)c3)ncc2N(C)C(=O)C1C [BID1870] (first compound 0.08 µM, partner dose 0.2 µM)",83.9,76.5,104,78.9,77,75.1,65.3,81.7,89,76
